To fix the notation:
T1: RBFOX1 RRM (Homo sapiens, UniProt Q9NWB1 109-208)
T1 sequence: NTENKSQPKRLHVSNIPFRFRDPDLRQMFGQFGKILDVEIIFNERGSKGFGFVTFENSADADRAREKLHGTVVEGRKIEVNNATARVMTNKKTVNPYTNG

B1: UUCCUUA (DNA:RNA)
RNA: GGGAGACCGGAAUUCAGAUUGUCCUUCCUUAUUAAAUCCCGUCGUAGCCACCA
DNA 1: CAATCTGAATTCCGGTCTCCC
DNA 2: TGGTGGCTACGACGGGATT
B2: UGGUAGG (DNA:RNA)
RNA: B1 RNA with U26G, C27G, C28U, U29A, U30G, A31G
DNA 1: CAATCTGAATTCCGGTCTCCC
DNA 2: TGGTGGCTACGACGGGATT
B3: CGUCACU (DNA:RNA)
RNA: B1 RNA with U25C, U26G, C27U, U29A, U30C, A31U
DNA 1: CAATCTGAATTCCGGTCTCCC
DNA 2: TGGTGGCTACGACGGGATT
B4: UCCCCGU (DNA:RNA)
RNA: B1 RNA with U26C, U29C, U30G, A31U
DNA 1: CAATCTGAATTCCGGTCTCCC
DNA 2: TGGTGGCTACGACGGGATT
B5: ACCUGAG (DNA:RNA)
RNA: B1 RNA with U25A, U26C, C28U, U29G, U30A, A31G
DNA 1: CAATCTGAATTCCGGTCTCCC
DNA 2: TGGTGGCTACGACGGGATT
B6: UAUUUGC (DNA:RNA)
RNA: B1 RNA with U26A, C27U, C28U, U30G, A31C
DNA 1: CAATCTGAATTCCGGTCTCCC
DNA 2: TGGTGGCTACGACGGGATT
B7: GUCUAAU (DNA:RNA)
RNA: B1 RNA with U25G, C28U, U29A, U30A, A31U
DNA 1: CAATCTGAATTCCGGTCTCCC
DNA 2: TGGTGGCTACGACGGGATT
B8: CCUCAAA (DNA:RNA)
RNA: B1 RNA with U25C, U26C, C27U, U29A, U30A
DNA 1: CAATCTGAATTCCGGTCTCCC
DNA 2: TGGTGGCTACGACGGGATT
B9: AGCUUCA (DNA:RNA)
RNA: B1 RNA with U25A, U26G, C28U, U30C
DNA 1: CAATCTGAATTCCGGTCTCCC
DNA 2: TGGTGGCTACGACGGGATT
B10: CAGGGCU (DNA:RNA)
RNA: GGGAGACCGGAAUUCAGAUUGUCCCAGGGCUUUAAAUCCCGUCGUAGCCACCA
DNA 1: CAATCTGAATTCCGGTCTCCC
DNA 2: TGGTGGCTACGACGGGATT
B11: UCGGUAU (DNA:RNA)
RNA: B10 RNA with C25U, A26C, G29U, C30A
DNA 1: CAATCTGAATTCCGGTCTCCC
DNA 2: TGGTGGCTACGACGGGATT
B12: UCGGAAU (DNA:RNA)
RNA: B10 RNA with C25U, A26C, G29A, C30A
DNA 1: CAATCTGAATTCCGGTCTCCC
DNA 2: TGGTGGCTACGACGGGATT
B13: GUACAAA (DNA:RNA)
RNA: B1 RNA with U25G, C27A, U29A, U30A
DNA 1: CAATCTGAATTCCGGTCTCCC
DNA 2: TGGTGGCTACGACGGGATT
B14: UAAUCAA (DNA:RNA)
RNA: B1 RNA with U26A, C27A, C28U, U29C, U30A
DNA 1: CAATCTGAATTCCGGTCTCCC
DNA 2: TGGTGGCTACGACGGGATT
B15: GUCAUCA (DNA:RNA)
RNA: B1 RNA with U25G, C28A, U30C
DNA 1: CAATCTGAATTCCGGTCTCCC
DNA 2: TGGTGGCTACGACGGGATT
B16: ACGCAGU (DNA:RNA)
RNA: B10 RNA with C25A, A26C, G28C, G29A, C30G
DNA 1: CAATCTGAATTCCGGTCTCCC
DNA 2: TGGTGGCTACGACGGGATT
B17: GAGUGUC (DNA:RNA)
RNA: B10 RNA with C25G, G28U, C30U, U31C
DNA 1: CAATCTGAATTCCGGTCTCCC
DNA 2: TGGTGGCTACGACGGGATT
B18: CGUCUGA (DNA:RNA)
RNA: B1 RNA with U25C, U26G, C27U, U30G
DNA 1: CAATCTGAATTCCGGTCTCCC
DNA 2: TGGTGGCTACGACGGGATT
B19: UCUCGGU (DNA:RNA)
RNA: B10 RNA with C25U, A26C, G27U, G28C, C30G
DNA 1: CAATCTGAATTCCGGTCTCCC
DNA 2: TGGTGGCTACGACGGGATT
B20: GGCCGAC (DNA:RNA)
RNA: B1 RNA with U25G, U26G, U29G, U30A, A31C
DNA 1: CAATCTGAATTCCGGTCTCCC
DNA 2: TGGTGGCTACGACGGGATT
B21: UGAUCGC (DNA:RNA)
RNA: B1 RNA with U26G, C27A, C28U, U29C, U30G, A31C
DNA 1: CAATCTGAATTCCGGTCTCCC
DNA 2: TGGTGGCTACGACGGGATT
B22: GGUUGGG (DNA:RNA)
RNA: B10 RNA with C25G, A26G, G27U, G28U, C30G, U31G
DNA 1: CAATCTGAATTCCGGTCTCCC
DNA 2: TGGTGGCTACGACGGGATT
B23: UACCCGA (DNA:RNA)
RNA: B1 RNA with U26A, U29C, U30G
DNA 1: CAATCTGAATTCCGGTCTCCC
DNA 2: TGGTGGCTACGACGGGATT
B24: UAACUUG (DNA:RNA)
RNA: B1 RNA with U26A, C27A, A31G
DNA 1: CAATCTGAATTCCGGTCTCCC
DNA 2: TGGTGGCTACGACGGGATT
B25: GAGCCUU (DNA:RNA)
RNA: B10 RNA with C25G, G28C, G29C, C30U
DNA 1: CAATCTGAATTCCGGTCTCCC
DNA 2: TGGTGGCTACGACGGGATT
B26: UGGCCUA (DNA:RNA)
RNA: B1 RNA with U26G, C27G, U29C
DNA 1: CAATCTGAATTCCGGTCTCCC
DNA 2: TGGTGGCTACGACGGGATT
B27: UGCAGCC (DNA:RNA)
RNA: B10 RNA with C25U, A26G, G27C, G28A, U31C
DNA 1: CAATCTGAATTCCGGTCTCCC
DNA 2: TGGTGGCTACGACGGGATT
B28: UGGCUCU (DNA:RNA)
RNA: B10 RNA with C25U, A26G, G28C, G29U
DNA 1: CAATCTGAATTCCGGTCTCCC
DNA 2: TGGTGGCTACGACGGGATT
B29: AACGUUU (DNA:RNA)
RNA: B10 RNA with C25A, G27C, G29U, C30U
DNA 1: CAATCTGAATTCCGGTCTCCC
DNA 2: TGGTGGCTACGACGGGATT
B30: AUGGAAG (DNA:RNA)
RNA: B10 RNA with C25A, A26U, G29A, C30A, U31G
DNA 1: CAATCTGAATTCCGGTCTCCC
DNA 2: TGGTGGCTACGACGGGATT
B31: UAUAGCG (DNA:RNA)
RNA: B10 RNA with C25U, G27U, G28A, U31G
DNA 1: CAATCTGAATTCCGGTCTCCC
DNA 2: TGGTGGCTACGACGGGATT

Changes are numbered by the printed parent chain; changes in the protein carry UniProt numbers. Some of the results follow.

The target of the experiment is T1, RBFOX1 RRM. In words: EMSA; HiTS-Eq, 1 nM pool, 10 min; buffer printed only for the single-RNA assays: 10 mM Tris pH 7.5, 150 mM NaCl, 3.4 mM EDTA, 0.001% NP-40, 30 C. The following applies: tags: His6 N-terminal (pET28a); label: 5' 32P. In a few lines:
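Purified wild-type or mutant RbFox RRM at increasing concentrations was equilibrated with 1 nM of 5′-radiolabelled RNA carrying 7 randomized nucleotides for 10 min in 50 µL. Unbound RNA was separated by 8% native PAGE and sequenced. Relative association constants came from read-count changes of each RNA species compared with the control reaction, normalised to the cognate motif.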
(A gel shift assay detects complexes by their altered migration in electrophoresis.)
Consider B1, for which the binding signal is 0.0015 KA relative to UGCAUGU.

In the case of B2, the binding signal is 0.014 KA relative to UGCAUGU.

In the case of B3, the binding signal is 0.00348 KA relative to UGCAUGU.

Consider B4, for which the binding signal is 0.00198 KA relative to UGCAUGU.

With B5, the binding signal is 0.0112 KA relative to UGCAUGU.

Take B6: the binding signal was 0.0187 KA relative to UGCAUGU.

With B7, the binding signal is 0.00651 KA relative to UGCAUGU.

Consider B8, for which the binding signal was 0.00359 KA relative to UGCAUGU.

B9: the binding signal was 0.00577 KA relative to UGCAUGU.

Turning to B10, the binding signal is 0.0175 KA relative to UGCAUGU.

Take B11: the binding signal is 0.0134 KA relative to UGCAUGU.

For the molecule B12, the binding signal was 0.0096 KA relative to UGCAUGU.

For B13, the binding signal is 0.00434 KA relative to UGCAUGU.

On to B14, for which the binding signal is 0.00134 KA relative to UGCAUGU.

As to B15, the binding signal is 0.0041 KA relative to UGCAUGU.

For B16, the binding signal was 0.00515 KA relative to UGCAUGU.

Turning to B17, the binding signal is 0.0195 KA relative to UGCAUGU.

For the molecule B18, the binding signal is 0.0169 KA relative to UGCAUGU.

In the case of B19, the binding signal is 0.013 KA relative to UGCAUGU.

For the molecule B20, the binding signal was 0.0189 KA relative to UGCAUGU.

As to B21, the binding signal was 0.025 KA relative to UGCAUGU.

On to B22, for which the binding signal is 0.0108 KA relative to UGCAUGU.

With B23, the binding signal was 0.00537 KA relative to UGCAUGU.

As to B24, the binding signal is 0.0139 KA relative to UGCAUGU.

B25: the binding signal is 0.0118 KA relative to UGCAUGU.

B26: the binding signal was 0.0142 KA relative to UGCAUGU.

Turning to B27, the binding signal is 0.0108 KA relative to UGCAUGU.

With B28, the binding signal was 0.0197 KA relative to UGCAUGU.

As to B29, the binding signal was 0.00505 KA relative to UGCAUGU.

Consider B30, for which the binding signal was 0.00901 KA relative to UGCAUGU.

Take B31: the binding signal is 0.0121 KA relative to UGCAUGU.

The values above are taken from article PMC9911399, “Two distinct binding modes provide the RNA-binding protein RbFox with extraordinary sequence specificity”.
